Laboratory results taken from article PMC9133132.
No constants are given. Whether binding was seen depends on the method and setting. Binding seen in cells or lysates may run through a third protein. Some entries that bind do so weakly or less than the wild type. Where a sequence is shown, tags or fusion partners need not be part of it.

Amino acid sequences for entries named in this document (tags omitted).
UniProt Q9Y2F5: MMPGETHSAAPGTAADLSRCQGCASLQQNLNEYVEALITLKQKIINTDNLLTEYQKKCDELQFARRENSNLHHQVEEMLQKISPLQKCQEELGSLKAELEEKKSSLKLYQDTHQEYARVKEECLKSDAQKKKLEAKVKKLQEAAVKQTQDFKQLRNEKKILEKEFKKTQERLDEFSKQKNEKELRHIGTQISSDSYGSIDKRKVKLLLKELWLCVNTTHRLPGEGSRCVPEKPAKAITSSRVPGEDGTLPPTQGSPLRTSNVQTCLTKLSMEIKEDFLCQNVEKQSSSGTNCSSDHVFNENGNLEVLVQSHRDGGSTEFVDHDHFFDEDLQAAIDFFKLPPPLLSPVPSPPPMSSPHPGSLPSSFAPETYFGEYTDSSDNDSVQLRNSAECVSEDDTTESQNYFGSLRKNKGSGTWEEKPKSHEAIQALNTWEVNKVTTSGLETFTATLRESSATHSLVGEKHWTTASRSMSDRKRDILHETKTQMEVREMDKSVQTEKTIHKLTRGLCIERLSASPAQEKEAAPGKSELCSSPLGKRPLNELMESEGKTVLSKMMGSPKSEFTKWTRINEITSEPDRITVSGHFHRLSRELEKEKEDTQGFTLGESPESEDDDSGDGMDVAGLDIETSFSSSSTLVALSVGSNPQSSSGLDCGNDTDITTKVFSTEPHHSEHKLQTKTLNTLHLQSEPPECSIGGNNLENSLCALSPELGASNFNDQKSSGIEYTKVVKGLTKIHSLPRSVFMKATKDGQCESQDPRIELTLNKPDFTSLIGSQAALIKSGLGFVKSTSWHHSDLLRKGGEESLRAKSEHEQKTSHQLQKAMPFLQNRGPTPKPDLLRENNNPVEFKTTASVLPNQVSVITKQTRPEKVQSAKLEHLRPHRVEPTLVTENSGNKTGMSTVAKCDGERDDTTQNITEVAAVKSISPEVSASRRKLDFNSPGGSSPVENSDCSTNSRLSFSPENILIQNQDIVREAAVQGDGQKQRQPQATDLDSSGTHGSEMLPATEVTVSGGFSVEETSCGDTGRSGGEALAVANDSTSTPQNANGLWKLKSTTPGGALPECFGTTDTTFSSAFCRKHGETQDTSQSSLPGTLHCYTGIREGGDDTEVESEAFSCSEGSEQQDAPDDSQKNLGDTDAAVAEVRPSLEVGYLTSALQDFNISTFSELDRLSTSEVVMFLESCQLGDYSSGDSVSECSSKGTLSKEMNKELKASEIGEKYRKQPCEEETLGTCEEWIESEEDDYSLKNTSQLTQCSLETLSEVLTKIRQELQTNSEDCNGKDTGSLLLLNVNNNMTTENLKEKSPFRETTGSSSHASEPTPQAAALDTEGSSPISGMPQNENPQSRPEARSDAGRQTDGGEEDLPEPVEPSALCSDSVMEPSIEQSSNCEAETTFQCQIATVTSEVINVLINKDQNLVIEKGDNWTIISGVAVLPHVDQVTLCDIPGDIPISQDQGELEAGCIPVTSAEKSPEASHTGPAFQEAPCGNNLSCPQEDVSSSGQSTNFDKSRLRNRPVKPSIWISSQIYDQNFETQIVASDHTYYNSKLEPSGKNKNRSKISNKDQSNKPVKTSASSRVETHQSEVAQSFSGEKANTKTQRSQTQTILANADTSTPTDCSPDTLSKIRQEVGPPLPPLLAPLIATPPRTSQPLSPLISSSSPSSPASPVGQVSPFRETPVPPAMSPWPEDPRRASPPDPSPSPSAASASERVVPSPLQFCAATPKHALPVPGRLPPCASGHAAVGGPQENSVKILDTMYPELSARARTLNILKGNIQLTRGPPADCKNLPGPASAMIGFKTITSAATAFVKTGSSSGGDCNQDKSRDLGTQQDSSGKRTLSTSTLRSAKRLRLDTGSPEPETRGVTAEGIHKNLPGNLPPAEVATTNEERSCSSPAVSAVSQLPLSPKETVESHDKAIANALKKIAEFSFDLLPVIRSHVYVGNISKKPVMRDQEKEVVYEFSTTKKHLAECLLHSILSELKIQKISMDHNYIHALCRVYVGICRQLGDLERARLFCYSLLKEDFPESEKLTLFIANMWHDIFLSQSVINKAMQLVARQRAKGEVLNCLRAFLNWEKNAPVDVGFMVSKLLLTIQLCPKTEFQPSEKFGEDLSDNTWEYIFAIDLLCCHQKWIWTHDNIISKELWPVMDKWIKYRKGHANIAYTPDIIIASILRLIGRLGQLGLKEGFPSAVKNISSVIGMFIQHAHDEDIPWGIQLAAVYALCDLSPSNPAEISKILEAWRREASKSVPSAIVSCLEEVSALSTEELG
UniProt Q96HW7: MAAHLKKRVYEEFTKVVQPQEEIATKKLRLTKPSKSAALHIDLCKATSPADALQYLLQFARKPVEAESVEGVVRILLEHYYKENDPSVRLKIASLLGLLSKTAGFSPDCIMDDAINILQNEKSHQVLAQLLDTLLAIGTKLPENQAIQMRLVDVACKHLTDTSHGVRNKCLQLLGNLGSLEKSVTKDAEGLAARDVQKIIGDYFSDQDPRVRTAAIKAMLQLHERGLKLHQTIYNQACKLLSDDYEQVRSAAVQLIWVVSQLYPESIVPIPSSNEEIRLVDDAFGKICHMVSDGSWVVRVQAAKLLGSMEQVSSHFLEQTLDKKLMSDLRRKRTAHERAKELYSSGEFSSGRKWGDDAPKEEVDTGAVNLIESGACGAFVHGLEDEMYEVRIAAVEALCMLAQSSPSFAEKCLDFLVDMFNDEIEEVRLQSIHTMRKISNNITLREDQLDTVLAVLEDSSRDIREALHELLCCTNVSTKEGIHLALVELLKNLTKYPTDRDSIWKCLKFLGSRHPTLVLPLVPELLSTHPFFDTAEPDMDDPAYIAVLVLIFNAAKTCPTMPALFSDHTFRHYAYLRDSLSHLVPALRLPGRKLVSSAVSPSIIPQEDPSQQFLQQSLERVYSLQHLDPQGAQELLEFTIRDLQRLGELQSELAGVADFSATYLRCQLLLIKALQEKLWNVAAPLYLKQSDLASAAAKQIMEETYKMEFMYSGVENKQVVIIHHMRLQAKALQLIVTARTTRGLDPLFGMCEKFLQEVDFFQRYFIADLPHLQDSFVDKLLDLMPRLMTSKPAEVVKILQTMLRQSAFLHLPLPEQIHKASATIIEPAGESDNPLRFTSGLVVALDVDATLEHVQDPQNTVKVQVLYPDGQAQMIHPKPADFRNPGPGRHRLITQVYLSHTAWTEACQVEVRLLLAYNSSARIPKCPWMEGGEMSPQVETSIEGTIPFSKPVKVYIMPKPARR
UniProt P38432: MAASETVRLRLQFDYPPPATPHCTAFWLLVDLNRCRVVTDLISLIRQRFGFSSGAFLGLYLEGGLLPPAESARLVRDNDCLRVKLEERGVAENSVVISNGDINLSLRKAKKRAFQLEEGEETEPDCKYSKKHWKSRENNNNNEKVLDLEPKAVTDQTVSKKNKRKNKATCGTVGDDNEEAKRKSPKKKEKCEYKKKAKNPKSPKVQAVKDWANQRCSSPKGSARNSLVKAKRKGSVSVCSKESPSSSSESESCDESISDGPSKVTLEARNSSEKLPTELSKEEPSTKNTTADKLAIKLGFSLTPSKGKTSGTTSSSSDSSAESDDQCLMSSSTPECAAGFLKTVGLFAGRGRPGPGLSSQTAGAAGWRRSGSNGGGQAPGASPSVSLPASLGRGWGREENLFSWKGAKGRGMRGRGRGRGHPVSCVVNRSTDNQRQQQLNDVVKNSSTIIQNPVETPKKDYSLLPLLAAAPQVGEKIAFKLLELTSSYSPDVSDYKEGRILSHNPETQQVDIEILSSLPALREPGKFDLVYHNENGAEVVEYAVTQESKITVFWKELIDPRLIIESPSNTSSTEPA
UniProt Q96CJ1: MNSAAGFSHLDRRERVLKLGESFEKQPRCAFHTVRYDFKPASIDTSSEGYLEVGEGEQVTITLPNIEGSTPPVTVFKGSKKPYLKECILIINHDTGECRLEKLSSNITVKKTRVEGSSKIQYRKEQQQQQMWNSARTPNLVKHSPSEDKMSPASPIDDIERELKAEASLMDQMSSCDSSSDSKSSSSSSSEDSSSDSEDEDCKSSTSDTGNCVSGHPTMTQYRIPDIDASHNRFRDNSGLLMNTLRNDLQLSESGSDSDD

T1: FLAG-tagged MED26 (human) (UniProt O95402)
T1 sequence: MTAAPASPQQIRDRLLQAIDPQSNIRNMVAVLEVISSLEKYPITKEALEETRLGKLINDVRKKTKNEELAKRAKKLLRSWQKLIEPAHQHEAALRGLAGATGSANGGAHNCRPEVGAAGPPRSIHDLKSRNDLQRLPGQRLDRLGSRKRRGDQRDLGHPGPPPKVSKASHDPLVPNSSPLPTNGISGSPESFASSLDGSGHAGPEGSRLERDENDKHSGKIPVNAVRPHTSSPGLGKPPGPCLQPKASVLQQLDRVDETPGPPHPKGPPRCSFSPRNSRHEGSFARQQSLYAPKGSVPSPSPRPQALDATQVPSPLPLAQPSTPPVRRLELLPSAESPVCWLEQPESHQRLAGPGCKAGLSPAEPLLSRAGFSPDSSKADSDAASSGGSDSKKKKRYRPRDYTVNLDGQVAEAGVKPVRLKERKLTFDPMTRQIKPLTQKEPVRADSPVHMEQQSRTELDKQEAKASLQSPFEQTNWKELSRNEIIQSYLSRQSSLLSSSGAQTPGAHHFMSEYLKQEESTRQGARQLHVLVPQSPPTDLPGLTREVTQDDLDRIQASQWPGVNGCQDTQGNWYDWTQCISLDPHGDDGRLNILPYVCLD

T2: N-terminally 6xHis- and FLAG-tagged ICE2 (UniProt Q659A1)
T2 sequence: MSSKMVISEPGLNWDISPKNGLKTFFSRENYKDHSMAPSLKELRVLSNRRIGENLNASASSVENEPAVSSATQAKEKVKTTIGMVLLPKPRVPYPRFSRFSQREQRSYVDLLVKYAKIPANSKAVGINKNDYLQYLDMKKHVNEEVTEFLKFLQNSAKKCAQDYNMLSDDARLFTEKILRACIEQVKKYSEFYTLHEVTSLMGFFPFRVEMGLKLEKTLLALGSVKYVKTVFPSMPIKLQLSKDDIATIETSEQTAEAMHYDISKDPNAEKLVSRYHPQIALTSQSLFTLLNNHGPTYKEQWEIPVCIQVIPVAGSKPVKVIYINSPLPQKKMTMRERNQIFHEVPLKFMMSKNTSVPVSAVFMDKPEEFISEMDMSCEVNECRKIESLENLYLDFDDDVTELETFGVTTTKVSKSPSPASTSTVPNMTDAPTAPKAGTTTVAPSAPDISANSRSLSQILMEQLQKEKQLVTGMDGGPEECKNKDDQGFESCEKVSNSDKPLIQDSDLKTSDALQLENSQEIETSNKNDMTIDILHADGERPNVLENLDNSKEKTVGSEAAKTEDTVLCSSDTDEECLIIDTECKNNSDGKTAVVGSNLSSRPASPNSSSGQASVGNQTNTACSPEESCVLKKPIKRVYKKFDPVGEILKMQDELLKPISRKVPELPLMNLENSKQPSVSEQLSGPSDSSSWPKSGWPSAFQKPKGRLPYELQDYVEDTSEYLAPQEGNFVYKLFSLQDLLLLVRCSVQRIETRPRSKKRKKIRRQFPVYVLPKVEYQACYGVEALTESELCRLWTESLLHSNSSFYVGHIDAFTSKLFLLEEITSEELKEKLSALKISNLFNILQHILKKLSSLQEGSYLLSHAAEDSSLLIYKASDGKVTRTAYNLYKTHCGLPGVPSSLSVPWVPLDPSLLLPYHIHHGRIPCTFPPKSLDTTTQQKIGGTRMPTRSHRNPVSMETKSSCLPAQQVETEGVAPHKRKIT

B1: N-terminally 6xHis- and HA-tagged ELL (protein, UniProt P55199 1-621)
chain: MAALKEDRSYGLSCGRVSDGSKVSVFHVKLTDSALRAFESYRARQDSVSLRPSIRFQGSQGHISIPQPDCPAEARTFSFYLSNIGRDNPQGSFDCIQQYVSSHGEVHLDCLGSIQDKITVCATDDSYQKARQSMAQAEEETRSRSAIVIKAGGRYLGKKVQFRKPAPGATDAVPSRKRATPINLASAIRKSGASAVSGGSGVSQRPFRDRVLHLLALRPYRKAELLLRLQKDGLTQADKDALDGLLQQVANMSAKDGTCTLQDCMYKDVQKDWPGYSEGDQQLLKRVLVRKLCQPQSTGSLLGDPAASSPPGERGRSASPPQKRLQPPDFIDPLANKKPRISHFTQRAQPAVNGKLGVPNGREALLPTPGPPASTDTLSSSTHLPPRLEPPRAHDPLADVSNDLGHSGRDCEHGEAAAPAPTVRLGLPLLTDCAQPSRPHGSPSRSKPKKKSKKHKDKERAAEDKPRAQLPDCAPATHATPGAPADTPGLNGTCSVSSVPTSTSETPDYLLKYAAISSSEQRQSYKNDFNAEYSEYRDLHARIERITRRFTQLDAQLRQLSQGSEEYETTRGQILQEYRKIKKTNTNYSQEKHRCEYLHSKLAHIKRLIAEYDQRQLQAWP
B2: NPAT (Nuclear protein, coactivator of histone transcription) (protein, UniProt Q14207 1-1427)
chain: MLLPSDVARLVLGYLQQENLISTCQTFILESSDLKEYAEHCTDEGFIPACLLSLFGKNLTTILNEYVAMKTKETSNNVPAIMSSLWKKLDHTLSQIRSMQSSPRFAGSQRARTRTGIAEIKRQRKLASQTAPASAELLTLPYLSGQFTTPPSTGTQVTRPSGQISDPSRSYFVVVNHSQSQDTVTTGEALNVIPGAQEKKAHASLMSPGRRKSESQRKSTTLSGPHSTIRNFQDPNAFAVEKQMVIENAREKILSNKSLQEKLAENINKFLTSDNNIAQVPKQTDNNPTEPETSIDEFLGLPSEIHMSEEAIQDILEQTESDPAFQALFDLFDYGKTKNNKNISQSISSQPMESNPSIVLADETNLAVKGSFETEESDGQSGQPAFCTSYQNDDPLNALKNSNNHDVLRQEDQENFSQISTSIQKKAFKTAVPTEQKCDIDITFESVPNLNDFNQRGNSNAECNPHCAELYTNQMSTETEMAIGIEKNSLSSNVPSESQLQPDQPDIPITSFVSLGCEANNENLILSGKSSQLLSQDTSLTGKPSKKSQFCENSNDTVKLKINFHGSKSSDSSEVHKSKIEINVLEPVMSQLSNCQDNSCLQSEILPVSVESSHLNVSGQVEIHLGDSLSSTKQPSNDSASVELNHTENEAQASKSENSQEPSSSVKEENTIFLSLGGNANCEKVALTPPEGTPVENSHSLPPESVCSSVGDSHPESQNTDDKPSSNNSAEIDASNIVSLKVIISDDPFVSSDTELTSAVSSINGENLPTIILSSPTKSPTKNAELVKCLSSEETVGAVVYAEVGDSASMEQSLLTFKSEDSAVNNTQNEDGIAFSANVTPCVSKDGGYIQLMPATSTAFGNSNNILIATCVTDPTALGTSVSQSNVVVLPGNSAPMTAQPLPPQLQTPPRSNSVFAVNQAVSPNFSQGSAIIIASPVQPVLQGMVGMIPVSVVGQNGNNFSTPPRQVLHMPLTAPVCNRSIPQFPVPPKSQKAQGLRNKPCIGKQVNNLVDSSGHSVGCHAQKTEVSDKSIATDLGKKSEETTVPFPEESIVPAAKPCHRRVLCFDSTTAPVANTQGPNHKMVSQNKERNAVSFPNLDSPNVSSTLKPPSNNAIKREKEKPPLPKILSKSESAISRHTTIRETQSEKKVSPTEIVLESFHKATANKENELCSDVERQKNPENSKLSIGQQNGGLRSEKSIASLQEMTKKQGTSSNNKNVLSVGTAVKDLKQEQTKSASSLITTEMLQDIQRHSSVSRLADSSDLPVPRTPGSGAGEKHKEEPIDIIKAPSSRRFSEDSSTSKVMVPPVTPDLPACSPASETGSENSVNMAAHTLMILSRAAISRTTSATPLKDNTQQFRASSRSTTKKRKIEELDERERNSRPSSKNLTNSSIPMKKKKIKKKKLPSSFPAGMDVDKFLLSLHYDE

biological target: T1, FLAG-tagged MED26 (human); assay: co-IP; as a2, EAF1-mutant HEK293T cells stably expressing F-MED26 (rows for what is lost or barely left in these cells)

| binding | Molecule |
| --- | --- |
| no binding | EAF1 point mutant (positions 262 to 265 replaced by alanines), endogenous in the EAF1-point-mutant HEK293T cell line E/2-24 (from UniProt Q96JC9 1-268) |

biological target: T2, N-terminally 6xHis- and FLAG-tagged ICE2; assay: co-IP; reconstituted LEC: HA-ICE1, F-ICE2, HA-ELL and HA-EAF1-wt or HA-EAF1-mut co-expressed in the baculoviral expression system, purified through anti-FLAG affinity chromatography, Coomassie Brilliant Blue staining

| binding | Molecule |
| --- | --- |
| binds | N-terminally 6xHis- and HA-tagged EAF1 wild-type (from UniProt Q96JC9 1-268) |
| binds | N-terminally 6xHis- and HA-tagged ICE1 (from UniProt Q9Y2F5 1-2266) |
| binds | B1 |

biological target: T1, FLAG-tagged MED26 (human); assay: co-IP; anti-FLAG M2 agarose on nuclear extracts (with Benzonase) of wild-type or EAF1-mutant HEK293T cells stably expressing F-MED26; 2 h at 4 °C; washes 50 mM HEPES-NaOH pH 7.9, 0.15 M NaCl, 0.1% Triton X-100, 10% glycerol; FLAG peptide elution; western blotting

| binding | Molecule |
| --- | --- |
| binds | EAF1, wild type, endogenous (from UniProt Q96JC9 1-268) |
| binds | INTS4, component of Integrator (from UniProt Q96HW7 1-963) |
| binds | Coilin (from UniProt P38432 1-576) |
| binds | EAF2, endogenous (from UniProt Q96CJ1 1-260) |
| binds | B2 |
